Hit rate of the full screen: of about 310,000 compounds, about 18,000 (5.8%) were called active. Inconclusive means that the source gave no clear call. Such entries were picked first, then a sample of the others. The call rests on the fitted dose curve; in most records, active means well fitted inhibition curve with a large enough effect; inconclusive means small, poorly fitted or top-dose-only effect, or another doubt; inactive means no such curve, though single readings can be large or run the other way. Potencies of inconclusive entries are left out as doubtful fits.
Assay: Primary qHTS for delayed death inhibitors of the malarial parasite plastid, 48 hour incubation
Settings: P. falciparum luciferase growth in erythrocytes; series mostly up to 28.7 µM
Procedure, shortened: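 Cell-based growth assay: transgenic P. falciparum expressing firefly luciferase, cultured in red cells within RPMI 1640 containing 0.5% w/v Albumax, 24 mM bicarbonate and gentamycin. A drop in luciferase activity indicates inhibition.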
Potency means the concentration at half of the fitted maximal effect; tags describe the fitted curve by direction and shape.

Structure (SMILES)	Potency
CCCCSc1nnc(CNC(=O)C23CC4CC(CC(C4)C2)C3)n1Cc1ccccc1	active: 13.1 µM
O=C(O)[C@@H]1CCCN1C(=O)CCc1c[nH]c2ccccc12	inactive
Cc1ccc(C)c(Cn2nnc3c(=O)[nH]c(C4CCN(S(=O)(=O)c5ccc(S(=O)(=O)NC6CC6)cc5)CC4)nc32)c1	active: 2.62 µM
Cc1ccc(S(=O)(=O)N[C@@H](CO)C(=O)N[C@@H](Cc2ccc(O)cc2)C(=O)O)cc1	inactive
CC(=O)c1ccc2noc(-c3cccc(C)c3)c2c1	inconclusive [inhibitor, single point]
Cc1cc(NC(=O)CSCc2ccccc2C)no1	inactive
C=CCNc1oc(-c2ccco2)nc1S(=O)(=O)c1ccccc1	inactive
COc1ccc(C2c3c(ccc4ccccc34)Oc3ncn4nc(-c5ccco5)nc4c32)cc1OC (stereo unspecified)	inconclusive [inhibitor, single point]
Cc1ccccc1CNC(=O)c1ccccc1SCC(=O)NCc1ccco1	inconclusive [inhibitor, partial curve]
CCN(CC(=O)Nc1c(F)cccc1F)C(=O)c1cccc(S(=O)(=O)N(C)c2ccccc2)c1	inconclusive [inhibitor, partial curve, poor fit]
Cc1ccccc1N(C(=O)c1snc(C(N)=O)c1N)C(C(=O)NC1CCCCC1)c1ccc(O)cc1 (stereo unspecified)	inconclusive [inhibitor, single point]
Cc1ccc(NC(=O)C(=O)NNC(=O)c2cccs2)cc1	inactive
COc1ccc(-n2nc(C(=O)NCC(=O)NC(C)C)c3ccccc3c2=O)cc1	inactive
CCN(CC)CCCNC(=S)Nc1ccc(Br)cc1	inactive
COc1ccc(-c2csc3nc(C)nc(N4CCN(c5ccc(C(C)=O)cc5)CC4)c23)cc1OC	inconclusive [inhibitor, full curve, poor fit]
Cc1ccc(S(=O)(=O)Nc2ccc(N(C)S(=O)(=O)c3ccc(C)cc3)cc2)cc1	inconclusive [inhibitor, single point]
O=C(CN1CCOCC1)NCc1ccccc1	inactive
Cc1ccc(-c2cc(C(=O)N3CCOCC3)c3ccccc3n2)cc1	inconclusive [inhibitor, single point]
Cc1ccc2cc(C)c(N3CCN(c4ccccn4)CC3)nc2c1	inactive
Cc1ccccc1Cn1nc(C)c(NC(=O)c2sc3ccccc3c2Cl)c1C	inconclusive [inhibitor, single point]
CC1(C)CC(=O)C(C=NCCCN2CCOCC2)=C(O)C1	inconclusive [inhibitor, partial curve, poor fit]
CSc1ccc(C(=O)C2CCCN(Cc3cccc4nccnc34)C2)cc1 (stereo unspecified)	active: 10.4 µM
CCCCN(c1ccccc1)S(=O)(=O)c1cccc2cccnc12	inconclusive [inhibitor, partial curve]
CN1CCN(c2ccc(S(=O)(=O)N3CCCCC3)cc2NC(=O)c2ccc(F)cc2F)CC1	inconclusive [inhibitor, partial curve, poor fit]

Structure (SMILES)	Potency
CC1(C)CC(NC(=O)c2ccccc2)CC(C)(C)N1	inactive
COc1ccc(-n2c(N)c(C(=O)NCc3ccco3)c3nc4ccccc4nc32)c(OC)c1	inconclusive [inhibitor, single point]
CCCCCC(=O)Nc1cccc(C2=NOC3(C2)C[C@@H](C(N)=O)N(C(=O)c2ccc(Cl)cc2)C3)c1 (stereo partly specified)	inconclusive [inhibitor, single point]
Cc1cc2c(s1)c(C=O)c(C(=O)NCc1ccccc1F)n2C	inconclusive [inhibitor, single point]
Cc1cccc(-c2cc3nc4c(c(N5CCCC(O)C5)n3n2)CCC4)c1 (stereo unspecified)	active: 6.57 µM
CCOc1ccc(NC(=O)CN(C)CC(=O)NC2CCCc3ccccc32)cc1OCC (stereo unspecified)	inconclusive [inhibitor, partial curve]
O=C(Nc1ccc(F)cc1)N1CCN(c2ccc(F)cc2)CC1	inconclusive [inhibitor, partial curve, poor fit]
CCCCn1nc(C(=O)Nc2ccc(S(=O)(=O)Nc3ncccn3)cc2)c2ccccc2c1=O	inconclusive [inhibitor, partial curve, poor fit]
O=C(N/N=C/c1sc(=O)n(Cc2ccc(Br)cc2)c1Cl)c1ccco1	active: 3.7 µM
O=C(Nc1ccc(F)cc1)N1CCn2c(nc3ccccc32)C1	inconclusive [inhibitor, single point]
N#Cc1cccc2cccc(S(=O)(=O)N3CCOCC3)c12	inactive
Cc1noc(C)c1COC(=O)c1ccccc1Oc1ccccc1	inactive
Oc1ccccc1N1CCN(C(c2ccccc2)c2ccccc2)CC1	inconclusive [inhibitor, partial curve, poor fit]
CCOc1ccc(CCNC(=O)C2CSC3(C)CCC(=O)N23)cc1OCC (stereo unspecified)	inconclusive [inhibitor, single point]
Cc1cc(C)n(-c2nc(N(c3ccccc3)c3ccccc3)nc(-n3nc(C)cc3C)n2)n1	active: 2.62 µM
CCCN1CCN(c2nc(-c3cccs3)nc3ccccc23)CC1	inconclusive [inhibitor, single point]
O=C(CSc1nnc2c(n1)[nH]c1ccccc12)NCc1ccco1	inactive
Cc1cc(C)nc(N/N=C2/CCCC/C2=C\c2ccccc2)n1	inconclusive [inhibitor, full curve]
COc1ccc(-n2c(CN3CCN(Cc4ccccc4)CC3)nc3ccc([N+](=O)[O-])cc3c2=O)c(OC)c1	inconclusive [inhibitor, single point]
Cc1ccc(C2C(C(=O)c3cc4ccccc4o3)=C(O)C(=O)N2c2cc(C)on2)cc1 (stereo unspecified)	inconclusive [inhibitor, single point]
COc1ccc(NC(=S)NC(NC(=O)/C=C/c2ccccc2)C(Cl)(Cl)Cl)cc1 (stereo unspecified)	inconclusive [inhibitor, partial curve, poor fit]
Cc1cc(C)n(CC(=O)N/N=C/c2ccc([N+](=O)[O-])s2)n1	inconclusive [inhibitor, single point]
Cc1ccsc1CN(C)CC(=O)NCC(=O)Nc1ccc(F)cc1	inconclusive [inhibitor, single point]
Cc1cc(C(=O)NC2CCCc3c2cnn3-c2ccccc2F)nc(C)n1 (stereo unspecified)	inactive

Structure (SMILES)	Potency
O=C(O)/C=C1\CCCc2ccccc2C1O (stereo unspecified)	inactive
CCCCCCCCOC(=O)CCn1[nH]c(=O)c2ccccc2c1=O	inconclusive [inhibitor, partial curve]
CCc1ccccc1NC(=O)CN1CCN(CC(=O)NCc2ccc(Cl)cc2)CC1	inconclusive [inhibitor, single point]
Cc1cccc(NC(=O)C2CCN(S(=O)(=O)c3ccc4c(c3)NC(=O)CO4)CC2)c1C	inactive
Cn1c(CC(=O)Nc2ccccc2F)nnc1SCC(=O)Nc1nncs1	inconclusive [inhibitor, full curve, poor fit]
COc1ccc(S(=O)(=O)NNC(=O)C23CC4CC(CC(C4)C2)C3)cc1[N+](=O)[O-]	inactive
Cc1ccc(S(=O)(=O)N2CCN(C(=O)CSc3nccn3C)CC2)cc1	inactive
CCOC(=O)c1c(-c2ccccc2)csc1NC(=O)C(C)NCCCN1CCOCC1 (stereo unspecified)	inconclusive [inhibitor, partial curve, poor fit]
CCN(CC(=O)NCc1ccc(Cl)cc1)C(=O)CSc1ccccc1F	inactive
CCCCn1nc(CC(=O)NCCN(CC)CC)c2ccccc2c1=O	inactive
Cc1ccc(C(C)C)c(OCC(O)CNC2CCCC2)c1 (stereo unspecified)	active: 5.22 µM
COc1ccccc1NC(=O)c1ccc(C)c(S(=O)(=O)N2CCCCC2)c1	inconclusive [inhibitor, single point]
CCOc1cc(C2C3=C(CCCC3=O)N(C)C3=C2C(=O)CCC3)cc(Cl)c1O	inconclusive [inhibitor, partial curve, poor fit]
NC(=O)C1Cc2ccccc2CN1S(=O)(=O)c1ccc(Cl)s1 (stereo unspecified)	inactive
CC1CCN(Cc2nc(Cl)c3c4c(sc3n2)CCC4)CC1	inactive
CCc1nc2ccc(C(=O)N3CCN(c4ccc([N+](=O)[O-])cc4)CC3)cc2nc1CC	inconclusive [inhibitor, single point]
CN1CCN(Cc2nc3ccccc3c(=O)n2Cc2nc(-c3ccc([N+](=O)[O-])cc3)cs2)CC1	inconclusive [inhibitor, single point]
CCOc1ccccc1NC(=O)COc1ccc2c(c1)OCO2	inactive
OC(C#CCN1CCOCC1)(c1ccccc1)C1CCCCC1 (stereo unspecified)	inconclusive [inhibitor, partial curve, poor fit]
CCOC(=O)c1c(C)n(CC(O)CN(C)C)c2cc(Br)c(OC)cc12 (stereo unspecified)	inconclusive [inhibitor, single point]
Fc1ccc(/C=N/Nc2nn[nH]n2)cc1	inactive
COc1ccc(C[C@H]2CN3C(=NC[C@@H]3C(C)C)N2CCNC(=O)CCC2CCCCC2)cc1	inconclusive [inhibitor, full curve, poor fit]
Cc1cc(C)cc(NC(=O)N(C)Cc2ccccc2)c1	inconclusive [inhibitor, single point]

— PubChem BioAssay AID504832 (National Center for Advancing Translational Sciences (NCATS), 2011)
